Source: PubChem BioAssay AID588453 (National Center for Advancing Translational Sciences (NCATS), 2011)
Where “and” joins values, the source holds several entries; their conditions need not be identical. Equal values may be shown once. Among all 390,000 compounds or so, about 4,000 (1%) were called active. The shares of active, inactive and inconclusive entries below differ from those in the screen. Calls follow the shape of the dose curve; as a rule, active = well fitted inhibition curve with a large enough effect; inconclusive = small, poorly fitted or top-dose-only effect; inactive = no such curve, though single readings can be large or run the other way. Potencies of inconclusive entries are doubtful fits and often do not repeat.

molecular target: Thioredoxin reductase 1, cytoplasmic (Rattus norvegicus) (UniProt O89049); experiment: qHTS Assay for Inhibitors of Mammalian Selenoprotein Thioredoxin Reductase 1 (TrxR1): qHTS; conditions: recombinant rTrxR1, NADPH fluorescence consumption, selenite substrate; series mostly up to 114 µM; activity change, negative = inhibition: at the top concentration; also: nearly all actives have a fitted effect of over 65% in size
Summary of the method: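 Rat TrxR1 (90 nM in the dispensed reagent) was pre-reduced with 400 uM NADPH for 5 min at room temperature, then incubated with compound for 15 min. After 400 uM selenite was added, NADPH fluorescence (Ex 340/Em 450 nm) was followed for 8 min.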
% is scaled to controls: 0 for no effect and ±100 for the full control effect; potency is read from the fitted curve at half-maximal effect; tags tell the direction and shape of the fitted curve.

UniProt O89049, sequence (O89049 whole entry, looked up): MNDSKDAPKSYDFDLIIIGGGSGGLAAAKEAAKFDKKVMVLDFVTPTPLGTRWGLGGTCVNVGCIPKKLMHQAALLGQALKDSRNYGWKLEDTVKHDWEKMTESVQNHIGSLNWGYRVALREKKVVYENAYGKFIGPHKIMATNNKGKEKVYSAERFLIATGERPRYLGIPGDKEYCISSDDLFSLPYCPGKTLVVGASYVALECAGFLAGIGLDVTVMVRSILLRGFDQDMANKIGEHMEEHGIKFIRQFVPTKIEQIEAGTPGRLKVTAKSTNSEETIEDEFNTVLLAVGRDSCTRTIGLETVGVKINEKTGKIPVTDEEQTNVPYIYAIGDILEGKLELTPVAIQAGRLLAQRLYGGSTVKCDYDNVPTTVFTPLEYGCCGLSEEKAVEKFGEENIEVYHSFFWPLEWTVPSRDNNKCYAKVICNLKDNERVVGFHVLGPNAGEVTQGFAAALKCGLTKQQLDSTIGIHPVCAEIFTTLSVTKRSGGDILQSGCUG

| SMILES | Potency | activity change, negative = inhibition |
| --- | --- | --- |
| CN(C)CC1CSCCC1(O)c1ccccc1 (stereo not drawn) | inconclusive: 31.6 µM [inhibitor, partial curve, poor fit] |  |
| CN1C[C@H](CO)C=C2c3cccc4[nH]cc(c34)C[C@H]21 | inconclusive: 2 µM [inhibitor, full curve] |  |
| CC(N)Cc1c[nH]c2ccc(O)cc12 (stereo not drawn) | inconclusive: 0.336 µM [inhibitor, full curve, poor fit] |  |
| CN(N=O)c1cc(O)ccc1O | active: 3.16 µM and active: 752 nM |  |
| COc1ccc(N2C(=O)NC(=O)/C(=C/c3ccc([N+](=O)[O-])s3)C2=O)cc1 | active: 39.8 µM |  |
| C/C(=C\c1ccc(N(C)C)cc1)[N+](=O)[O-] | inconclusive: 8.91 µM [inhibitor, full curve] |  |
| C[n+]1c2ccccc2nc2ccc(NCCO)cc21 | inconclusive: 10 µM [inhibitor, partial curve, poor fit] |  |
| COCCCn1c(N)c(C(=O)NCc2ccco2)c2nc3ccccc3nc21 |  | inactive: 7.33% |
| C[C@H]1CC[C@@H]2[C@@H](C)[C@H]3[C@H](C[C@H]4[C@@H]5CC=C6C[C@@H](O[C@@H]7O[C@H](CO)[C@H](O)[C@H](O[C@@H]8O[C@H](CO)[C@@H](O)[C@H](O)[C@H]8O)[C@H]7O[C@@H]7O[C@@H](C)[C@H](O)[C@@H](O)[C@H]7O)CC[C@]6(C)[C@H]5CC[C@]34C)N2C1 | active: 70.8 µM |  |
| COc1ccc(N2C(=O)CC(N3CC=C(c4ccccc4)CC3)C2=O)cc1 (stereo not drawn) | inconclusive: 25.1 µM [inhibitor, partial curve, poor fit] |  |
| COc1ccc(N2C(=O)/C(=C/c3ccc(C)o3)C(=O)NC2=S)cc1 | active: 20 µM |  |
| Cc1cc(/C=C2\C(=O)NC(=O)N(Cc3ccco3)C2=O)c(C)n1-c1ccc(O)cc1 | inconclusive: 79.4 µM [inhibitor, single point] |  |
| CCCc1cc(=O)oc2c3c(cc(OCC(=O)N4CCC[C@H]4C(=O)O)c12)OC(C)(C)CC3 | inconclusive: 50.1 µM [inhibitor, partial curve] |  |
| Cc1ccccc1-n1c(/C=C/c2c(C)[nH]c3ccccc23)nc2ccccc2c1=O | inconclusive: 89.1 µM [inhibitor, partial curve, poor fit] |  |
| O=C1NC(=O)C(=Cc2coc3ccccc3c2=O)C(=O)N1 | inconclusive: 17.8 µM [inhibitor, full curve] |  |
| COc1ccc(OCC(=O)N2CCN(CCc3ccncc3)CC2)cc1 | inconclusive: 35.5 µM [inhibitor, full curve] |  |
| CN(C)c1ccc(/C=C2\C(=O)NC(=O)N(Cc3ccc(F)cc3)C2=O)cc1 | inconclusive: 15.8 µM [inhibitor, full curve] |  |
| COc1ccc(/C=C/C=C2C(=O)NC(=S)NC2=O)cc1 | active: 7.08 µM |  |
| Cc1nn(Cc2ccccc2)c2c1C(c1ccco1)C(C#N)=C(N)O2 (stereo not drawn) | inconclusive: 25.1 µM [inhibitor, single point] |  |

| SMILES | Potency | activity change, negative = inhibition |
| --- | --- | --- |
| CCc1ccc(N2C(=O)NC(=O)/C(=C\c3cc(C)n(-c4cc(C(=O)O)cc(C(=O)O)c4)c3C)C2=O)cc1 | inconclusive: 31.6 µM [inhibitor, partial curve] |  |
| CCOC(=O)c1sc(/N=C/c2c(O)n(-c3cccc(C)c3)c(=O)[nH]c2=O)c(C#N)c1C | inconclusive: 50.1 µM [inhibitor, partial curve, poor fit] |  |
| CCCOc1ccc(C(=O)Nc2ccc(-c3cc4ccccc4oc3=O)c(C)c2)cc1 |  | inactive: 65.3% |
| Fc1ccc(C(OCCN2CCN(CCCc3ccccc3)CC2)c2ccc(F)cc2)cc1 | inactive |  |
| COc1cc(CN2CCCC(C(=O)c3sccc3C)C2)cc(OC)c1O (stereo not drawn) | inconclusive: 79.4 µM [inhibitor, partial curve] |  |
| CCOCN(C(=O)CCl)c1c(C)cccc1CC | inconclusive: 31.6 µM [inhibitor, partial curve] |  |
| COc1cccc(-c2nc(CS(=O)CC(=O)N3CCC4(CC3)OCCO4)c(C)o2)c1 (stereo not drawn) | inconclusive: 50.1 µM [inhibitor, partial curve, poor fit] |  |
| CN1CCC(O)(c2ccccc2)C(C(=O)c2ccccc2)C1 (stereo not drawn) | inconclusive: 0.891 µM [inhibitor, full curve, poor fit] |  |
| C=C(C)[C@H]1Cc2c(ccc3c2O[C@@H]2COc4cc(OC)c(OC)cc4[C@@H]2C3=O)O1 | inconclusive: 21.2 µM [inhibitor, single point] |  |
| Oc1ccccc1O | inconclusive: 17.8 µM [inhibitor, full curve] and inconclusive: 26.7 µM [inhibitor, single point] and inconclusive: 11.9 µM [inhibitor, partial curve] |  |
| CCOc1cc(C=C2C(=O)NC(=S)NC2=O)ccc1O |  | inactive: -77.8% [at 57.1 µM] |
| c1ccc(C2CC3CC(c4ccco4)N2O3)cc1 (stereo not drawn) | inconclusive: 79.4 µM [inhibitor, single point] |  |
| O=C(CN1CCOCC1)c1ccc2cc[nH]c2c1 | inconclusive: 22.4 µM [inhibitor, single point] |  |
| O=C1NC(=O)N(Cc2ccc(F)cc2)C(=O)/C1=C\c1ccc([N+](=O)[O-])s1 | active: 39.8 µM |  |
| CC(C)C[C@H]1C(=O)N2CCCC2[C@]2(O)O[C@](NC(=O)[C@@H]3C=C4c5cccc6[nH]c(Br)c(c56)C[C@H]4N(C)C3)(C(C)C)C(=O)N12 (stereo partly drawn) | inconclusive: 25.1 µM [inhibitor, partial curve] |  |
| CC(COc1ccccc1)N(CCCl)Cc1ccccc1 (stereo not drawn) | inconclusive: 44.7 µM [inhibitor, partial curve] |  |
| CN(C)c1ccc(C=C2C=CC=C2)cc1 | inconclusive: 44.7 µM [inhibitor, partial curve, poor fit] |  |
| O=C(N/N=C/C1C(=O)NC(=S)N(c2ccccc2)C1=O)c1cc(Br)c(O)c(Br)c1 (stereo not drawn) | inconclusive: 25.1 µM [inhibitor, partial curve, poor fit] |  |
| CNCCc1c[nH]c2ccc(O)cc12 | inconclusive: 0.336 µM [inhibitor, partial curve, poor fit] |  |
